The values that follow come from US20210395323A1 (UNIVERSIT T STUTTGART, published 2021).

For this experiment, the target named is T1, human TNFR2-Fc fusion protein (human, UniProt P20333 23-257).
T1 construct: also called huTNFR2-Fc; huTNFR2
T1 sequence (looked up): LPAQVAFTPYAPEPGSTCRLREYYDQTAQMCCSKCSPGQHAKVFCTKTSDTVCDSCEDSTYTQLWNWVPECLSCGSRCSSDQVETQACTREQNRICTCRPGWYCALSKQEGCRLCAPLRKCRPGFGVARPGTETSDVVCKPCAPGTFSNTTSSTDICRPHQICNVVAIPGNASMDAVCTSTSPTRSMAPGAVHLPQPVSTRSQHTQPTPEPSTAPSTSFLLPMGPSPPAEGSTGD
Nature of the experiment: ELISA, huTNFR2-Fc coated at 1 µg/ml, bound protein detected with anti-TNF F6C5. The protocol: ELISA plates (Greiner, Frickenhausen, Germany) were coated with huTNFR1-Fc, mTNFR1-Fc, huTNFR2-Fc or mTNFR2-Fc fusion proteins at 1 μg/ml in PBS and incubated at 4° C. overnight. Residual binding sites were blocked with 2% skim milk powder in PBS at RT for 2 hours. ScTNFR2 and the complexes were diluted in 2% skim milk powder in PBS and added at concentrations in the range of 10⁻³ to 10 nM and incubated for 1 hour at RT. Between each step, non-bound proteins were removed by washing 4 times with 0.005% Tween-20 in PBS.
Bound proteins were detected with mouse monoclonal antibodies to TNF (clone F6C5; 1 μg/ml; incubation for 1 hour at RT) and HRP-conjugated anti-mouse IgG antibodies (diluted 1:10000; incubation for 1 hour at RT), followed by incubation with tetramethylbenzidine (TMB) substrate solution. Reaction was stopped by addition of 1 M H₂SO₄ and the absorbance at 450 nm was determined with a Multiskan FC absorbance reader (Thermo Scientific, Karlsruhe, Germany) and data were analyzed using the software Microsoft Excel and GraphPad Prism 4 (GraphPad, La Jolla, Calif.) (FIG. 5). In Table 3, the calculated EC₅₀ values for the binding of TNF, scTNFR2 and the complexes to immobilized huTNFR2 and mTNFR2 based on the ELISA assay are summarized.
For orientation: ELISA stands for enzyme-linked immunosorbent assay.

B1: human single-chain TNF variant (D143N/A145R, scTNFR2) (ligand)
chain: [about 150 residues omitted]GGGGSSSRTPSDKPVAHVVANPQAEGQLQWLNRRANALLANGVELRDNQLVVPSEGLYLIYSQVLFKGQGCPSTHVLLTHTISRIAVSYQTKVNLLSAIKSPCQRETPEGAEAKPWYEPIYLGGVFQLEKGDRLSAEINRPDYLNFRESGQVYFGIIALGGGGSSSRTPSDKPVAHVVANPQAEGQLQWLNRRANALLANGVELRDNQLVVPSEGLYLIYSQVLFKGQGCPSTHVLLTHTISRIAVSYQTKVNLLSAIKSPCQRETPEGAEAKPWYEPIYLGGVFQLEKGDRLSAEINRPDYLNFRESGQVYFGIIAL
notes: Trivalent single chain; also called TNFR2-selective human TNF variant; trivalent scTNFR2
Consider B1, for which a half-maximal effect (EC50) was put at 0.554 nM.
